For four substances, binding results are on record in article PMC7360740.

Sequences of proteins named here, by UniProt entry; tags and fusion partners are left off. A change or cut given only in a name is not applied to a line headed by its entry.
UniProt Q9UQB8: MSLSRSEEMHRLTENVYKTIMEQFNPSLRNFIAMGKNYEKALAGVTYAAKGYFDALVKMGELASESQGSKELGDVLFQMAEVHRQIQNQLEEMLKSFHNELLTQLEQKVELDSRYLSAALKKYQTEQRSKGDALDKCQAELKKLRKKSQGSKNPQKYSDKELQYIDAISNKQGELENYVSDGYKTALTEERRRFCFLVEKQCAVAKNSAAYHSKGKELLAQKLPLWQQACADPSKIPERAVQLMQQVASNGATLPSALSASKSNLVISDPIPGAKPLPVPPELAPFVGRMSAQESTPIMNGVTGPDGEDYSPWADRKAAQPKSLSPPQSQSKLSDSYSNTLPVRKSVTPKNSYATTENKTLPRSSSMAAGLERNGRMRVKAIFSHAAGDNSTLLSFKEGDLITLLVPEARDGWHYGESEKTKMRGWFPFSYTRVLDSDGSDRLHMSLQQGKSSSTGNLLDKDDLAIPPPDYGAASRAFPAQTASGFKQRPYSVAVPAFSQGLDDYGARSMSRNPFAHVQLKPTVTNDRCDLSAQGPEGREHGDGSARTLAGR
UniProt Q15286: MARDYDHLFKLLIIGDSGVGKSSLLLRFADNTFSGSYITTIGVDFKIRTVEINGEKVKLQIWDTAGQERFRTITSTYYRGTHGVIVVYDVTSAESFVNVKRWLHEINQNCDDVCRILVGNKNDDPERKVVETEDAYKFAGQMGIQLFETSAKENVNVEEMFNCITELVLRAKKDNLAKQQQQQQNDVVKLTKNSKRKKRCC

The target of assay [1] is Flag-IRSp53 (UniProt Q9UQB8). Kind of assay: co-IP; lysates (1 mg) of HeLa cells transfected with GFP-RAB35 and Flag-IRSp53, serum starved overnight, not treated with growth factors; anti-FLAG M2 affinity gel, IP buffer (40 mM Hepes pH7.5, 150 mM NaCl, 10 mM MgCl2, 0.3% CHAPS), 4 °C; immunoblot. (A western blot detects proteins with antibodies after separation by electrophoresis.)

For assay [2], the target named is Flag-IRSp53 (UniProt Q9UQB8). Kind of assay: condition: only cells treated with growth factors after serum starvation; co-IP; as a1, but the serum-starved HeLa cells were treated with growth factors before lysis.
For assay [3], the target named is recombinant purified His-IRSp53 (UniProt Q9UQB8). Kind of assay: far-Western, overlay or dot blot; equal amounts (50 nM) of IRSp53 full-length WT, fragments and mutant spotted onto nitrocellulose, incubated with GST-RAB35S22N (50 nM); anti-GST immunoblot; both purified.
Assay [4] deals with GST-RAB35S22N (UniProt Q15286). Kind of assay: far-Western, overlay or dot blot; indicated amounts of GST-RAB35S22N spotted onto nitrocellulose, incubated with 30 nM IRSp53 WT or IRSp53 I-BAR*; anti-IRSp53 immunoblot; both purified.
In assay [5] the target is GST-RAB35WT (UniProt Q15286). Kind of assay: pull-down + far-Western, overlay or dot blot; as a3, with 2.5 µM GST-RAB35WT loaded with GDP (1 mM, 1 h 37 °C); both purified.
The target in assay [6] is GST-RAB35S22N (UniProt Q15286). Kind of assay: pull-down + far-Western, overlay or dot blot; pull-down: 2.5 µM GST-RAB35S22N or GST-RAB35Q67L on beads with 1 µM His-IRSp53 in IVB buffer (50 mM Tris pH 7.5, 100 mM NaCl, 10 mM MgCl2, 0.1% Triton X-100, 0.05% BSA), 1 h at 4 °C; overlay on nitrocellulose, set-up in Supplementary Fig. 4D, E not …; both purified.

No constants are given. Whether binding was seen depends on the method and setting. For some of these results: In cells and extracts the contact can be indirect. Some results given as binding are weak or reduced against the parent protein; the word gives no strength.

With GFP-RAB35 (from UniProt Q15286 1-201), the values for the binding result in assay [1] and in assay [2] were “binds” and “no binding”, respectively.
“GST-RAB35S22N (from UniProt Q15286 1-201)”: the binding entry in assay [3] is on record as “binds”.
With “recombinant purified His-IRSp53 (from UniProt Q9UQB8 1-552)”, the binding entry in assay [4] is given as “binds”; in assay [5], “binds weakly”; in assay [6] it was “binds weakly”.
Turning to “recombinant purified IRSp53 I-BAR* (K142E, K143E, K146E, K147E) (from UniProt Q9UQB8 1-552)”, in assay [4], the binding entry is listed as “no binding (tested: 30 nM)”.
